Laboratory results reported in PubChem BioAssay AID493005 (National Center for Advancing Translational Sciences (NCATS), 2010).
The campaign covered roughly 340,000 compounds. Fewer than 10 were called active. The shares of active, inactive and inconclusive entries below differ from those in the screen. Calls come from the whole dose curve; as a rule, active = well fitted inhibition curve with a large enough effect in the main read-out, with a control signal flat (not every such curve was filed as active); inconclusive = small, poorly fitted or top-dose-only effect, or effect the other way, or a change in a side signal; inactive = no such curve, though single readings can be large or run the other way. Where the call is inconclusive, the potency comes from a doubtful curve fit. “Side channel” marks fits to a control or component signal instead of the main read-out.

These molecules were tested against Tumor susceptibility gene 101 protein (Homo sapiens) (UniProt Q99816) (assay: qHTS Assay for Iinhibitors of HIV-1 Budding by Blocking the Interaction of PTAP/TSG101). Conditions: Fluorescence polarization, FITC-PTAP peptide / Tsg101 binding; activity change, negative = inhibition: at 115 µM (top of the series).
Procedure, shortened: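 Compounds were pin-transferred onto Tsg101 binding domain (10 uM final) in HEPES pH 7.5 buffer, then FITC-PTAP peptide was added at 50 nM final. After 20 min at RT, polarization reported peptide displacement across a qHTS concentration series.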
Potency is the fitted concentration of half-maximal effect; tags give direction and shape of the fitted curve or compound fluorescence and quenching.
Throughout, for activity change, negative = inhibition: % of control where 0% means no effect.

Chain of UniProt Q99816 (Q99816 whole entry, looked up, the tested form may be a part): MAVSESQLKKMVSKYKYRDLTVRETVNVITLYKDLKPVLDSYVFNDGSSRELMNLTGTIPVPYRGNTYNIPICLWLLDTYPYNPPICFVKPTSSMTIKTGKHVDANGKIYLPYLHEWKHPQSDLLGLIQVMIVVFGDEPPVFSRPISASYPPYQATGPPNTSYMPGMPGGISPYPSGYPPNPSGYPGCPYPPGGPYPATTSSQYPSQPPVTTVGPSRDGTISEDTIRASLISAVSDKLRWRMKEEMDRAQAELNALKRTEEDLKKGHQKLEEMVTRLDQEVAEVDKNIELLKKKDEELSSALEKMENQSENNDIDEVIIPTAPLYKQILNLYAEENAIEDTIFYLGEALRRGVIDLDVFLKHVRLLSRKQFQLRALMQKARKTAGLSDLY

Structure (SMILES)	activity change, negative = inhibition	Potency
O=C(c1cc(-c2ccc(Cl)c(Cl)c2)on1)N1CCOCC1	inactive: -0.276%	–
CCCCCOc1ccc(CSc2n[nH]c(C)n2)cc1	inactive: -0.8%	–
COc1ccc(C(=O)NCC(=O)OCC(=O)c2c(C)[nH]c3ccccc23)cc1OC	–	inconclusive: 56.2 µM [fluorescent, side channel, partial curve, poor fit]
CN(C)S(=O)(=O)N(CC(=O)Nc1ccccc1)c1ccccc1	inactive: 3.84%	–
C/C(=N/NC(=O)c1ccncc1)c1cc2ccc(O)cc2oc1=O	–	inconclusive: 3.16 µM [inhibitor, full curve]
CCOC(=O)/C(=N\Nc1ccc(C(C)=O)cc1)c1csc(Nc2ccccc2)n1	–	inconclusive: 56.2 µM [fluorescent, side channel, partial curve, poor fit]
O=C1Nc2ccc(F)cc2C12Nc1ccccc1-c1nnc(SCc3ccccc3F)nc1O2 (stereo not drawn)	–	inconclusive: 100 µM [fluorescent, single point]
CCOC(=O)/C(C#N)=C/c1ccc(N2CCCCC2)cc1	–	inconclusive: 89.1 µM [fluorescent, side channel, single point]
COc1ccc(C(=O)/C=C/Nc2ccc([N+](=O)[O-])cc2C)cc1OC	–	inconclusive: 56.2 µM [fluorescent, side channel, partial curve, poor fit]
Cc1cccc(NC(=O)CN2C(=O)N/C(=C/c3ccc(C)s3)C2=O)c1	–	inconclusive: 63.1 µM [fluorescent, side channel, partial curve, poor fit]
CC#CCOC(=O)c1c(C)nc2sc3c(c2c1N)CCC(O)C3 (stereo not drawn)	inactive: -2.71%	–
Oc1oc(-c2ccccc2)nc1C=NCc1ccccc1	inactive: -7.93%	–
N#C/C(=C/c1ccc(N2CCOCC2)o1)C(=O)Nc1ccccc1	–	inconclusive: 56.2 µM [fluorescent, side channel, partial curve, poor fit]
O=C1C=CC(=O)c2c(O)c(CO)c(CO)c(O)c21	–	inconclusive: 56.2 µM [fluorescent, side channel, partial curve, poor fit]
COC(=O)c1ccccc1C(=O)N1CC(O)CO1 (stereo not drawn)	inconclusive: 59.4% [activator]	–
N#C/C(=C\N1CCN(Cc2ccc3c(c2)OCO3)CC1)c1nc2ccccc2s1	–	inconclusive: 79.4 µM [fluorescent, side channel, partial curve, poor fit]
Cc1ccc2oc(=O)c(/C=C(\O)c3cccs3)nc2c1	–	inconclusive: 50.1 µM [fluorescent, side channel, partial curve, poor fit]
CCN(CC)c1ccc2cc(C(=O)NNC(=O)c3ccc(S(=O)(=O)N4CCCCC4)cc3)c(=O)oc2c1	–	inconclusive: 79.4 µM [fluorescent, side channel, partial curve, poor fit]
O=c1[nH]c(S)c(/C=C2\C=Nc3ccccc32)s1	–	inconclusive: 79.4 µM [fluorescent, partial curve, poor fit]
O=[N+]([O-])c1ccc(-c2cn3nc(-c4ccccc4)c(-c4ccccc4)nc3n2)cc1	–	inconclusive: 56.2 µM [fluorescent, side channel, partial curve, poor fit]

Structure (SMILES)	activity change, negative = inhibition	Potency
CN(C)c1ccc(/C=C/c2cccc[n+]2[O-])cc1	–	inconclusive: 50.1 µM [fluorescent, side channel, partial curve, poor fit]
Cc1cccc(Nc2nc(-c3ccccc3)c(C(=O)Nc3cccnc3)s2)c1	inactive: 2.26%	–
C=CCN1C(=O)C2(NNc3ccccc3O2)c2ccccc21 (stereo not drawn)	–	inconclusive: 79.4 µM [fluorescent, side channel, partial curve, poor fit]
Cc1ccc(S(=O)(=O)c2nc(-c3ccccc3Cl)oc2N(C)C)cc1	inactive: -4.34%	–
CC(=O)c1cc(NC(=O)c2cccc(C(F)(F)F)c2)c(=O)oc1/C=C/N(C)C	–	inconclusive: 44.7 µM [fluorescent, side channel, partial curve, poor fit]
CC(=O)c1cc(NC(=O)c2ccccc2)c(=O)oc1/C=C/N(C)C	–	inconclusive: 79.4 µM [fluorescent, side channel, partial curve, poor fit]
Cc1ccc2oc(=O)c(/C=C(\O)c3sc(C)nc3C)nc2c1	–	inconclusive: 89.1 µM [fluorescent, side channel, single point]
COc1cccc(OC)c1-c1nn2c(-c3cc(-c4ccccc4)n[nH]3)nnc2s1	–	inconclusive: 44.7 µM [fluorescent, partial curve, poor fit]
Cc1cccc2cc(CN(Cc3nnnn3Cc3ccco3)C3CCCC3)c3nnnn3c12	inactive: -0.567%	–
CC1CC(C)CN(CCCNC(=O)c2csc3c2CCCC3)C1 (stereo not drawn)	inactive: -2.87%	–
CC[C@@]12C(=O)N(c3ccc(C)cc3)C(=O)N1[C@H](c1ccc(Br)cc1)[C@@H]1C(=O)N(C(C)(C)C)C(=O)[C@@H]12	–	inconclusive: 79.4 µM [quencher, side channel, partial curve, poor fit]
Cn1nc([N+](=O)[O-])c(C(C#N)c2nc3ccccc3n2C)c(Cl)c1=O (stereo not drawn)	–	inconclusive: 79.4 µM [falling, partial curve, poor fit]
CCOc1ccc(OCC)c(-c2c(=O)n(OCc3ccccc3C(=O)OC)c3ccccc3[n+]2[O-])c1	inactive: -4.78%	–
Cc1ccc(C(=O)/C=C/c2ccc(F)cc2)o1	inactive: -2.15%	–
CCCCN1C(=O)/C(=C/C=C2\SCCN2C)SC1=S	–	inconclusive: 44.7 µM [fluorescent, side channel, partial curve, poor fit]
O=C(O)C(c1ccccc1)N1C(=O)/C(=C\c2ccc(-c3ccccc3Cl)o2)SC1=S (stereo not drawn)	–	inconclusive: 70.8 µM [fluorescent, side channel, partial curve]
COc1ccc2c(c1OC)C(=O)N1c3ccccc3COC21 (stereo not drawn)	inactive: -0.861%	–
CC(=O)c1ccc(N2C(=O)C3C(C2=O)C(C(=O)c2ccc(Cl)cc2)N2CCCC32)cc1 (stereo not drawn)	–	inconclusive: 50.1 µM [fluorescent, side channel, partial curve, poor fit]
CCOc1ccc2nc(/N=C/c3nc(-c4ccc(Br)cc4)oc3O)sc2c1	–	inconclusive: 44.7 µM [fluorescent, side channel, partial curve, poor fit]
O=C(O)CCCNc1cc(N2CCN(C(=O)c3ccco3)CC2)c2noc3c2c1C(=O)c1ccccc1-3	–	inconclusive: 39.8 µM [fluorescent, side channel, partial curve]

Structure (SMILES)	activity change, negative = inhibition	Potency
C/C(N)=C(/C#N)C(=O)CSc1nnc(Nc2c(C)cccc2C)s1	–	inactive
CCOC(=O)C1=C(O)/C(=C/c2cn(CC(=O)NCC3CCCO3)c3ccccc23)SC1=Nc1ccc(C)cc1 (stereo not drawn)	–	inconclusive: 50.1 µM [fluorescent, side channel, partial curve, poor fit]
Cc1scc(C(=O)N/N=C/c2ccc(Cl)s2)c1C	inactive: -0.774%	–
CC1CCN(CCCNC(=O)c2coc3nc4ccccc4nc23)CC1	inactive: -8.68%	–
O=c1oc2ccccc2nc1/C=C(\O)c1ccc(Br)cc1	–	inconclusive: 56.2 µM [fluorescent, side channel, partial curve, poor fit]
NC(=O)CSc1nc2c(sc3ccccc32)c(=O)n1CCCC(=O)NCC1CCCO1 (stereo not drawn)	–	inconclusive: 25.1 µM [fluorescent, side channel, full curve]
COc1ccc(NC(=O)c2sc3nc(-c4cccnc4)ccc3c2N)cc1OC	–	inconclusive: 56.2 µM [fluorescent, side channel, partial curve, poor fit]
O=C1/C(=C/C=C/c2ccccc2)Oc2c1ccc(O)c2CN1CCN(CCO)CC1	–	inconclusive: 56.2 µM [fluorescent, side channel, partial curve, poor fit]
CCCn1c(=O)c(C(=O)NCc2ccccc2OC)c(O)c2ccccc21	–	inconclusive: 35.5 µM [quencher, side channel, partial curve, poor fit]
Cc1ccc(NC(=O)COc2ncnc3ccccc23)cc1S(=O)(=O)N1CCOCC1	inactive: -2.24%	–
Cc1cccc2c3nc4ccccc4nc3n(C)c12	–	inconclusive: 50.1 µM [fluorescent, side channel, partial curve, poor fit]
COc1ccc(C(=O)CSc2nnc(-c3cccnc3)n2Cc2ccco2)cc1	inactive: -6.85%	–
CCCCC1=CC2=C(c3ccco3)C(=O)C(C)(OC(=O)c3ccc(OC)cc3)C(=O)C2=CN1Cc1ccccc1 (stereo not drawn)	inactive: 0.388%	–
Cc1cc(C)c[n+](-c2[nH]c(=O)sc2/C=N/NC([S-])=Nc2ccccc2)c1	–	inconclusive: 50.1 µM [fluorescent, side channel, partial curve, poor fit]
COC(=O)CNc1c(-c2ccccc2)nc2ccc(Br)cn12	–	inconclusive: 56.2 µM [falling, partial curve, poor fit]
COC(=O)c1cn(C(=O)c2ccccc2Cl)c2ccccc12	–	inconclusive: 89.1 µM [quencher, side channel, partial curve, poor fit]
Cc1ccc(S(=O)(=O)C(C#N)c2nc3ccccc3nc2N2CCC(C)CC2)cc1 (stereo not drawn)	–	inconclusive: 79.4 µM [fluorescent, side channel, partial curve, poor fit]
COc1cc(OC)c(OC)cc1/C=C1/Cc2ccccc2C1=O	–	inconclusive: 56.2 µM [fluorescent, side channel, partial curve, poor fit]
